The campaign covered roughly 310,000 compounds. About 2,200 (0.71%) showed an effect of 50% or more. Effects have a minus sign here. The list shows a part of the results.
target: human ether-à-go-go-related gene (hERG) potassium channel (human, UniProt Q12809); assay: primary screen, population patch clamp on CHO cells stably expressing hERG
Sequence (Q12809 whole entry, looked up): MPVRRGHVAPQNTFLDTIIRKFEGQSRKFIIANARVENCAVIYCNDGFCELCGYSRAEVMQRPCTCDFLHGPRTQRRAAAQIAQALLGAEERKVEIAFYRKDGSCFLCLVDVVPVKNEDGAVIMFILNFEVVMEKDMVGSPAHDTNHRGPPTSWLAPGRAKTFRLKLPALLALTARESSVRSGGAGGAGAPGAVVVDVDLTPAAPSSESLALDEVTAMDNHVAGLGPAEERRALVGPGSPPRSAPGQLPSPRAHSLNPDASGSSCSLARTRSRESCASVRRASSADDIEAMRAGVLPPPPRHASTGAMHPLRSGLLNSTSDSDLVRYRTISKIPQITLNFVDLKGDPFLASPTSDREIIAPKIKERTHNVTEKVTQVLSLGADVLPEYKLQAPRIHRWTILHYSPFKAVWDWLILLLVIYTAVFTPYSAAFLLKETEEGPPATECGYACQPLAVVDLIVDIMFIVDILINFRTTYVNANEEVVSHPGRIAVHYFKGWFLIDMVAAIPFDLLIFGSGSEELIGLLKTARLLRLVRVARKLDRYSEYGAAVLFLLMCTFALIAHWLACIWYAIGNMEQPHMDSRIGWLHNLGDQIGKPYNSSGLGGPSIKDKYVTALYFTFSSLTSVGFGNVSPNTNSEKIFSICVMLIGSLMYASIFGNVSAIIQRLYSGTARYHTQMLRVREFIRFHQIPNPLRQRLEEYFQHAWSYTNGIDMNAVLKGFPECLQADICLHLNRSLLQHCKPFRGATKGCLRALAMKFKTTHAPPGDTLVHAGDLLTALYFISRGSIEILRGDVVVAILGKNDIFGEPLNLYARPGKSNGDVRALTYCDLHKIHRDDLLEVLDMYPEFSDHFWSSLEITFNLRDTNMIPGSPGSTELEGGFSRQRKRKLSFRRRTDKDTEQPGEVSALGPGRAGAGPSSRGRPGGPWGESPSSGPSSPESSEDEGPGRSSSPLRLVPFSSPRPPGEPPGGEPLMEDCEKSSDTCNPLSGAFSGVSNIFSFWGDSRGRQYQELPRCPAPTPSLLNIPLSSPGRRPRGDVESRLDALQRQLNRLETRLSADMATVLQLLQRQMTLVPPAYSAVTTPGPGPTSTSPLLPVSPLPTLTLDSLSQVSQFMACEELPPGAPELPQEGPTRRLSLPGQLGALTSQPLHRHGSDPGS

Row | Compound | hERG current change (%, negative = inhibition) at 1uM [%]
1 | O=C(CN1C(=O)C2C3C=CC(C4CC34)C2C1=O)Nc1cnc2ccccc2c1 (stereo not drawn) | 7.53
2 | COc1cccc(/C=N/NC(=S)NC2CC3CC2C2C=CCC32)c1O (stereo not drawn) | 13.3
3 | Cc1cccc(C)c1NC(=O)CN(C)CC(=O)Nc1ccccc1Br | 10.2
4 | O=C(N/N=C\c1ccccn1)c1ccccc1O | 13
5 | COc1ccc2nc(SCc3cnc(C)nc3N)[nH]c2c1 | 4.25
6 | c1ccc2[nH]c(CCCc3nc4ccccc4[nH]3)nc2c1 | 11.1
7 | COc1ccc(C2C(C(=O)N3CCOCC3)=C(C)NC3=C2C(=O)CC(C)(C)C3)c(OC)c1 (stereo not drawn) | -8.13
8 | CC(=O)Nc1ccc(NC(=O)CSc2nnc(-c3cccs3)n2C)cc1 | 11
9 | COc1ccc(C(=O)NC(C)c2cnn(-c3ccccn3)c2C)o1 (stereo not drawn) | -1.43
10 | Cc1c(NC(=O)c2cc(-c3ccc(Cl)c(Cl)c3)on2)c(=O)n(-c2ccccc2)n1C | -2.05
11 | O=C(c1ccco1)N1CCN(Cc2nnnn2C2CCCCC2)CC1 | 9.48
12 | Cc1ccc(-n2cc(CN3CCC(CO)(Cc4ccccc4)CC3)cn2)cc1 | -22
13 | COc1ccc2c(c1)-c1nc(/N=C/c3ccc(O)cc3)sc1CC2 | 5.03
14 | C=CCn1c(-c2ccoc2C)n[nH]c1=S | 8.26
15 | COC(=O)c1oc(-c2ccccc2)nc1C | 34.4
16 | CC(=O)N1CCN(C(=O)c2ccc(S(=O)(=O)Nc3ccccc3C)cc2)CC1 | -1.33
17 | O=c1cc(CCl)nc(Cc2c(Cl)cccc2Cl)[nH]1 | 14.8
18 | O=C(N/N=C/C(Cl)=C/c1ccccc1)c1ccc2c(c1)OCO2 | 9.28
19 | Cc1ccc(NC(=O)c2sc3ccccc3c2Cl)nc1 | 8.41

Row | Compound | hERG current change (%, negative = inhibition) at 1uM [%]
20 | C/C(=N/NC(=O)C1COc2ccccc2O1)c1ccco1 (stereo not drawn) | 8.7
21 | Cc1nc2nc(SCc3ccccc3)[nH]n2c(=O)c1C | 6.36
22 | COc1ccccc1C(=O)Nc1ccc(-c2nnn(CC(=O)NCc3ccco3)n2)cc1 | 13
23 | Fc1ccc(/C=N/n2c(-c3cccs3)n[nH]c2=S)cc1 | 16
24 | Cc1cc(C)c(S(=O)(=O)N2CCOC2CNC(=O)C(=O)NCCc2c[nH]c3ccccc23)c(C)c1 (stereo not drawn) | 11.2
25 | O=C(N/N=C/c1ccc([N+](=O)[O-])cc1)c1cc2ccccc2o1 | 14.8
26 | O=c1nc(NCc2ccco2)sc2ncccc12 | 8.47
27 | Cc1cc(Cl)ccc1NC(=O)CN1CCN(C(=O)c2ccco2)CC1 | -57.1
28 | CCN(CC)S(=O)(=O)c1ccc(C(=O)NCC(=O)NC2CC2)cc1 | 3.22
29 | CC1CC(C)CN(CCCNC(=O)COc2cc(=O)n(C)c3ccccc23)C1 (stereo not drawn) | 10.1
30 | Oc1ccc(/C=N/Nc2cc(N3CCCC3)nc(N3CCCC3)n2)cc1O | 11.8
31 | COc1ccc(-n2nnc3c(SCC(=O)Nc4ccccc4F)ncnc32)cc1 | 13.2
32 | COc1ccc(N2CCN(CC(=O)Nc3cccc(S(=O)(=O)N4CCOCC4)c3)CC2)cc1.Cl | 6.26
33 | Cc1[nH]c2ccccc2c1C(=O)CSc1nccc(=O)[nH]1 | 18.2
34 | CCOc1ccc(OCCCCOc2ccccc2C(C)=O)cc1 | 0.463
35 | COc1cccc(-c2cc(C(=O)NC3CCCC3)c3ccccc3n2)c1 | 5.18
36 | COc1ccc(OC)c(NS(=O)(=O)c2cccc3cccnc23)c1 | 18.4
37 | COC(=O)N/N=C/c1ccc(-c2cc(Cl)ccc2Cl)o1 | -8.49
38 | Cc1ccccc1-n1c(SCC(=O)NCc2cccs2)nnc1-c1ccncc1 | 3.24

Row | Compound | hERG current change (%, negative = inhibition) at 1uM [%]
39 | COc1cc2c(cc1OC)[C@@H]1Cc3cc4c(cc3[C@H](C2)N1C)OCO4.Cl | 1.43
40 | CS(=O)(=O)N(CC(=O)N1CCOCC1)c1ccc2c(c1)OCO2 | 17.6
41 | CC(C)N1C(=O)c2ccccc2C1C(=O)NC1CCCCCC1 (stereo not drawn) | 4.81
42 | CC(C)CC(C(=O)NC(C)(C)C)N(CC1CCCO1)C(=O)c1snc(C(N)=O)c1N (stereo not drawn) | 10.5
43 | COc1ccc(OCc2cc(C(=O)N(C)C3CCOC3)no2)c(Cl)c1 (stereo not drawn) | 3.45
44 | Cc1c(Nc2nc(-c3cccc([N+](=O)[O-])c3)cs2)c(=O)n(-c2ccccc2)n1C | 8.43
45 | Cc1ccc(C(=O)N2CCCC(N3CCN(c4ccccc4F)CC3)C2)s1 (stereo not drawn) | 6.32
46 | CCCCN(CC)S(=O)(=O)c1ccc(C(=O)Nc2nnc(-c3cccs3)o2)cc1 | 3.5
47 | O=C1/C(=C/N(C(=O)c2ccco2)c2ccc(Cl)cc2)Sc2ccccc21 | 7.25
48 | O=C(NCc1nnc(SCC(=O)N2CCc3ccccc32)o1)c1ccco1 | 14.2
49 | COc1ccc(C(=O)O/N=C2\CCCc3nonc32)cc1 | 19.8
50 | CCOC(=O)C1=C(CS(=O)(=O)c2ccc(C)cc2)NC(=O)NC1c1cc(OC)c(O)c(OC)c1 (stereo not drawn) | 9.43
51 | O=C1C2CC=CCC2C(=O)N1c1n[nH]c(Cc2ccccc2)n1 (stereo not drawn) | 10.6
52 | Cc1ccc(NC(=O)C/C(N)=N/OC(=O)Nc2cccc(C)c2)cc1 | 5.89
53 | Cc1ccc(NC(=S)N(C)N)cc1Cl | 25.7
54 | Cc1noc(C)c1COc1ccc(C(=O)OCC(=O)N2c3ccccc3NC(=O)C2(C)C)cc1 | 11.5
55 | CCOC(=O)C1CCN(C(=O)c2ccccc2Oc2ccccc2)CC1 | -4.93
56 | O=C(NCc1ccc2c(c1)OCO2)c1ccc(S(=O)(=O)N2CCCCC2)cc1 | -3.28
57 | O=C(COC(=O)c1ccc(O)cc1)Nc1ccc2[nH]c(=O)[nH]c2c1 | 3.85
